From article PMC6919601, “Identification of Plasmodium dipeptidyl aminopeptidase allosteric inhibitors by high throughput screening” (PLoS ONE, 2019)
In all, about 110,000 compounds went through this assay and about 230 (0.21%) showed an effect of 50% or more. Some of the results follow.

target: DPAP1 (Plasmodium falciparum, UniProt Q8IIJ9); assay: primary screen, percent inhibition; read by cleavage of a fluorogenic dipeptide substrate; higher = more effect of the substance; set-up: species or system P. falciparum D10 trophozoite lysates; single well
Sequence (Q8IIJ9 whole entry, looked up): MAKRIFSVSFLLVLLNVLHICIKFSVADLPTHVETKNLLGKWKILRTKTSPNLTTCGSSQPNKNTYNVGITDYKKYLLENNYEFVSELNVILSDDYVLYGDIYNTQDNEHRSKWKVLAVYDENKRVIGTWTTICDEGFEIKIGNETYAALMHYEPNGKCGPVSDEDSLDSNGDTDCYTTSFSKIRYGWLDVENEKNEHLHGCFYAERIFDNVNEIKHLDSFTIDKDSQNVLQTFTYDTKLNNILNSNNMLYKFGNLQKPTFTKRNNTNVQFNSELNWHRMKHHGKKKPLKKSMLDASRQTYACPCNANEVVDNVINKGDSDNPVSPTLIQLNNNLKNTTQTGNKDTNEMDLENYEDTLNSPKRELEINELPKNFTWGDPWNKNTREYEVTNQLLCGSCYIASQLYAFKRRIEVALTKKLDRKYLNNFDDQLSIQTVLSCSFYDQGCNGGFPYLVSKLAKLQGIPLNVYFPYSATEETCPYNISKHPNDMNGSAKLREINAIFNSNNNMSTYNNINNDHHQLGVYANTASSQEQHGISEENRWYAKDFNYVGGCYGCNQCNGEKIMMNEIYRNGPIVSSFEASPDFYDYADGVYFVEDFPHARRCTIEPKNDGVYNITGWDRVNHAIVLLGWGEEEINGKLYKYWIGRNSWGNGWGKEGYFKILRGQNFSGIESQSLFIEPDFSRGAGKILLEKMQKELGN
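Note: 30 min substrate incubation versus DMSO and 10 µM JCP410 controls.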

Row | Structure (SMILES) | % Inhibition @ 10 uM
1 | CC1=C(C(=O)OCC(Cl)(Cl)Cl)C(c2ccc(Cl)cc2Cl)NC(=O)N1 (centres unmarked) | -1.56%
2 | COC(=O)C1=C(C)N(Cc2cccnc2)C(=O)/C1=C\c1ccccc1OCc1ccccc1 | 4.32%
3 | Cc1ccccc1Cc1cnc(NC(=O)C2(C)Cc3ccccc3C(=O)O2)s1 (centres unmarked) | 0.747%
4 | CN1CCC(NCc2ccccc2Cl)CC1 | -8.55%
5 | CC(C)(C)Oc1ncc(-c2ccccn2)c(OC(C)(C)C)n1 | -1.04%
6 | CC1CC(CCN)(c2ccccc2)C(C)CN1C (centres unmarked) | 1.54%
7 | CCOc1c(Cl)cc(C(=O)N(Cc2cccc(F)c2)C2CCS(=O)(=O)C2)cc1Cl (centres unmarked) | 5.17%
8 | COc1ccc(-c2ccc(C#N)c(SCC(=O)NC3CC3)n2)cc1OC | 1.57%
9 | CC1=C(C(=O)OCc2ccc(C)cc2)C(c2ccccc2C)CC(=O)N1 (centres unmarked) | -2.24%
10 | O=C(NC1CCCc2ccccc21)C1CCC(CNS(=O)(=O)c2cccc3nsnc23)CC1 (centres unmarked) | -0.465%
11 | Cc1ccccc1OCc1nn2c(-c3ccncc3)nnc2s1 | 2.89%
12 | CCCO/C(O)=C1\C(C)=NC2=C(C(=O)CCC2)C1c1ccc(OCCC)c(OC)c1 (centres unmarked) | -1.03%
13 | Cc1ccc(Cn2cnc3ccccc32)cc1 | 0.132%
14 | c1ccc2c(c1)nc1n2CN(CC2CCCO2)CN1 (centres unmarked) | 2.1%
15 | CCCc1cc(O)n2nc(-c3ccccc3)cc2n1 | -4.32%
16 | COc1cccc(NS(=O)(=O)c2ccc(NC(C)=O)cc2)c1 | -2.94%
17 | COc1ccccc1CN1CCN(Cc2cccc(Cl)c2)CC1 | -3.87%
18 | O=C(O)c1cccc(C(=O)O)c1Cl | 1.72%
19 | CC(C)(C)c1ccc(S(=O)(=O)NCCCCCC(=O)O)cc1 | 15.9%
20 | COC(=O)c1cc(S(=O)(=O)N(Cc2ccccc2OC)C2CCN(C)CC2)c[nH]1 | -5.67%
21 | Cc1cc(NC(=O)c2cc(-c3ccc(O)cc3)on2)no1 | -2.65%
22 | COc1ccc(C(=O)Nc2ccccc2Br)cc1OC | 1.48%
23 | Cc1ccc(NC(=O)COc2ccccc2C(C)C)cc1 | -9.29%
24 | Cc1ccc(-c2c(N3CCc4ccccc4C3)c(=O)c2=O)cc1 | 6.64%
25 | Cc1ccccc1C(=O)Nc1nnc(C2CCCCC2)s1 | -8.42%
26 | COC(=O)c1c(C)nn(CCC#N)c1N | -3.53%

Row | Structure (SMILES) | % Inhibition @ 10 uM
27 | CC(=O)Nc1c(C#N)c(C)n(-c2ccc(Br)cc2)c1C(=O)c1ccccc1 | -2.51%
28 | Cc1[nH]c2ccccc2c1CN1CCN(c2cccc(C(F)(F)F)c2)CC1 | 7.8%
29 | Cc1ccc(C(=O)NC2(C(F)(F)F)C(=O)N(Cc3ccccn3)C3=C2C(=O)CC(C)(C)C3)cc1 (centres unmarked) | 1.62%
30 | Cc1ccc(NC(=O)C(Cc2ccc([N+](=O)[O-])cc2)N2C(=O)c3ccccc3C2=O)cc1[N+](=O)[O-] (centres unmarked) | -2.47%
31 | O=C(NCCc1ccccc1)/C(=C/c1ccco1)NC(=O)c1cccc(Br)c1 | -6.36%
32 | CC1(C)CC2CC(C)(CN2C(=O)COc2ccc(Cl)cc2)C1 (centres unmarked) | -3.09%
33 | CC1(C)C/C(=N/NC(N)=S)c2ccoc2C1 | 9.21%
34 | COC(=O)c1ccc2oc(-c3ccc(-c4nc5cc(C(=O)OC)ccc5o4)c4ccccc34)nc2c1 | 1.38%
35 | CCOC(=O)N1CCN(C(=O)CS(=O)(=O)Cc2nc(-c3ccc(C)cc3)oc2C)CC1 | -0.138%
36 | Cc1cccnc1Nc1nc(-c2ccccn2)cs1 | 0.0539%
37 | COc1cccc2c1cc1c(=O)n(CC(=O)N3CCC4(CC3)OCCO4)nc(C)n12 | 3.29%
38 | CCN(CC)CCN(C)Cc1ccc2ccc3cccc4ccc1c2c34 | 5.8%
39 | CCc1ccc(N2CC(C(=O)O)CC2=O)cc1 (centres unmarked) | -2.53%
40 | O=C(O)CN1C(=O)C(Cc2ccc(Cl)cc2)c2ccccc21 (centres unmarked) | 1.17%
41 | COc1ccccc1NC(=O)c1ccc(Cl)cc1 | 1.42%
42 | O=C(NCCc1ccccc1)C(=O)NCC1OCCc2ccccc21 (centres unmarked) | -1.6%
43 | Cc1ccc(C2C(C#N)=C(N)Oc3[nH]nc(-c4ccccc4)c32)s1 (centres unmarked) | -0.661%
44 | O=C(Nc1ccc([N+](=O)[O-])cc1)c1ccco1 | -4.26%
45 | CCOC(=O)C1=C(CS(=O)(=O)c2ccccc2)NC(=O)NC1c1ccccc1 (centres unmarked) | -0.644%
46 | COc1ccc(C(=O)C2=C(O)C(=O)N(CCN3CCOCC3)C2c2ccc(Cl)cc2)cc1OC (centres unmarked) | -5.51%
47 | Cc1ccc2cc3cc(C(=O)N(C)C4CCCCC4)oc3nc2c1 | -1.54%
48 | Cc1nc(Oc2ccccc2)c2oc3ccccc3c2n1 | -4.85%
49 | Cc1ccc(S(=O)(=O)N(C)CC(=O)N2CCN(c3ccccc3F)CC2)cc1 | 2.37%
50 | CC1=C(C(=O)c2ccccc2)C(c2ccccc2)C2=C(O)CC(C)(C)CC2=N1 (centres unmarked) | -0.105%
51 | Cc1ccc2c(C)nc(NC3=NC(=O)CC(C(=O)Nc4ccc(Br)cc4)N3)nc2c1 (centres unmarked) | 3.46%
52 | Cc1nn(Cc2ccc(F)cc2)c(C)c1NC(=O)C1c2ccccc2Oc2ccccc21 | 7.04%

Row | Structure (SMILES) | % Inhibition @ 10 uM
53 | CC(C(=O)N(C1CCCCC1)C1CCCCC1)N1C(=O)c2ccccc2C1=O (centres unmarked) | -5.28%
54 | CN(C)CCNCC12CC3CC(CC(C3)C1)C2 | 2.45%
55 | O=C(NCc1ccccc1)C1CCC(CNc2c(N3CCCC3)c(=O)c2=O)CC1 (centres unmarked) | 1.22%
56 | Cc1cccc(Oc2nc3ccccn3c(=O)c2/C=C(\C#N)C(=O)NC2CCCCC2)c1C | 3.63%
57 | CCCCCC1CCC(c2ccc(-c3ccc(OCC)cc3)nc2)CC1 (centres unmarked) | -3.67%
58 | CCc1[nH]nc2c1C1(CCN(C(=O)c3ccccc3)CC1)C(C#N)=C(N)O2 | 2.38%
59 | O=C(C1CC1c1ccccc1)N1CCCCC1 (centres unmarked) | -0.999%
60 | O=C(COc1ccccc1)Nc1ncc2c(n1)CC(c1ccc(F)cc1)CC2=O (centres unmarked) | -5.2%
61 | CCCCCCN1C(=O)NC(=O)/C(=C\c2ccccc2Cl)C1=O | -4.21%
62 | CC(=O)Nc1c(Cl)cc(N2C(=O)c3ccc(C(=O)O)cc3C2=O)cc1Cl | 8.4%
63 | O=C1NN(c2ccc(Cl)c(Cl)c2)C(=O)/C1=C/c1ccccc1 | 3.42%
64 | Cc1cc(C)nc(SCCn2c(N3CCC(C)CC3)nc3c2c(=O)[nH]c(=O)n3C)n1 | 2.41%
65 | Cc1ccc(CC2CC(=O)N(c3nccs3)C2=O)cc1 (centres unmarked) | 3.73%
66 | Cc1cc(C(F)(F)F)nc(Nc2nc3ccccc3o2)n1 | -4.39%
67 | O=S(=O)(c1ccc(Cl)cc1)c1nc(-c2ccccc2)oc1N1CCOCC1 | -6.24%
68 | Cc1ccc(/C(O)=C/C=N/c2cc(C(C)(C)C)on2)cc1 | -0.25%
69 | O=C(c1ccco1)N(Cc1nc(-c2ccccc2)no1)C1CCCCC1 | 3.74%
70 | Cc1ccc(C(=O)Nc2cc(C(=O)O)cc(C(=O)O)c2)cc1C | 3.29%
71 | CCc1nc2ccccc2c(NC(=O)CN2CCCCCC2)c1C | -1.86%
72 | COc1ccc(-c2noc(CCC(=O)NCc3cc(OC)ccc3OC)n2)cc1 | 0.675%
73 | CCO/C(O)=C1\C(C)=NC2=C(C(=O)CCC2)C1c1cccc(F)c1 (centres unmarked) | 5.01%
74 | CN(CCc1ccccn1)Cc1ccco1 | 3.48%
75 | O=C(c1ccco1)N1CCC(N(CCc2ccccc2)Cc2ccccc2)CC1 | -3.64%
76 | OC1CSc2nc3ccccc3n21 (centres unmarked) | -1.29%
77 | CCCN1CCN(c2cc(C)nc3c(-c4ccc(Cl)cc4)c(C)nn23)CC1 | -2.72%
78 | CC(C)(C)NCc1ccc([N+](=O)[O-])cc1 | -3.58%

Row | Structure (SMILES) | % Inhibition @ 10 uM
79 | CCOC(=O)N1CCN(C/C=C/c2ccccc2)CC1 | 1.9%
80 | Cc1nnc(SCC(=O)NCc2ccco2)c2cc3sccc3n12 | -6.25%
81 | COC(=O)C1=CN(CC2CCCO2)C=C(C(=O)OC)C1c1ccc(O)c(OC)c1 (centres unmarked) | -6.95%
82 | CC1=CC(C)C2C(=O)N(c3ccc(C(=O)O)cc3)C(=O)C2C1 (centres unmarked) | -3.84%
83 | OC(CNC1CC1)Cn1c2ccccc2c2ccccc21 (centres unmarked) | -5.14%
84 | COc1cccc(OCC(=O)Nc2cccc(C)n2)c1 | 2.03%
85 | O=C(Nc1ccc(Cc2ccc(NC(=O)c3ccco3)cc2)cc1)c1ccco1 | -5.69%
86 | COc1ccccc1-c1cc(C(=O)NCc2ccco2)no1 | 4.5%
87 | CC(C)CC(C(=O)NCC#N)n1cnc2c(Cl)nc(Cl)nc21 (centres unmarked) | 1.7%
88 | CN(C)c1ccc(-c2ccc3ccccc3n2)cc1 | 5.06%
89 | O=C(NCCN1CCCC1)c1cccc(F)c1 | -4.52%
90 | COc1cccc(S(=O)(=O)NCc2ccc(C(=O)NCC3CCCO3)cc2)c1 (centres unmarked) | -7.22%
91 | COc1ccccc1NC(=O)c1c(N)sc2c1CCC2 | -2.79%
92 | NC(=O)C1CCCN(C2CCSC2)C1 (centres unmarked) | -3.6%
93 | O=C(NCc1ccccn1)c1nnc(Cc2ccc(Cl)cc2Cl)o1 | 11.5%
94 | Cc1cc(C)c2nc(N3CCC(C(=O)NCCC4=CCCCC4)CC3)sc2c1 | 3.4%
95 | Cn1c(=O)c(-c2ccccc2N)nc2cc3ccccc3cc21 | -3.77%
96 | Cc1ccc(C(C)C)c(OCC(=O)Nc2ccc(S(=O)(=O)Nc3cc(C)on3)cc2)c1 | 2.79%
97 | CC1(C)Cc2c(c(N3CCOCC3)nc3sc(C(=O)N4CCCCC4)c(N)c23)CO1 | 3.93%
98 | COc1ccc(Cl)cc1N(CC(=O)NCc1ccc(C)cc1)S(C)(=O)=O | 3.17%
99 | CCC(NC(=O)c1ccc(S(=O)(=O)N2CCCCC2)cc1)C12CC3CC(CC(C3)C1)C2 (centres unmarked) | -4.35%
100 | CC(Oc1ccccc1)C(=O)NCc1ccccc1 (centres unmarked) | -2.65%
101 | CCOC(=O)c1nnn(-c2nonc2N)c1COc1ccc2c(c1)OCO2 | 19.4%
